# Source: PubChem BioAssay AID485344 (National Center for Advancing Translational Sciences (NCATS), 2010)
# Hit rate of the full screen: of about 340,000 compounds, about 6,900 (2%) were called active. Cut-off read from the data, not from the text of the source: active = inhibition above about 30%; inactive = below that, where a call was filed. Only a part is listed here, and it is no random draw. The source gives no active or inactive call for entries shown without one.
# Molecular target: D(2) dopamine receptor (Homo sapiens) (UniProt P14416)
# Test: HTS Assay for Allosteric Antagonists of the Human D2 Dopamine Receptor: Primary Screen for Antagonists; note: 0% is about no effect
# Settings: HEK293 TREx D2 cells, calcium flux, dopamine EC80; at 10 µM; stronger effect = higher value
# In short: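 In this primary screen, negative modulation is detected by tracking calcium flux after an EC80 dopamine challenge in inducible HEK293 T-REx D2 cells preexposed to test compound for 180 s.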
# Chain of UniProt P14416 (P14416 whole entry, looked up): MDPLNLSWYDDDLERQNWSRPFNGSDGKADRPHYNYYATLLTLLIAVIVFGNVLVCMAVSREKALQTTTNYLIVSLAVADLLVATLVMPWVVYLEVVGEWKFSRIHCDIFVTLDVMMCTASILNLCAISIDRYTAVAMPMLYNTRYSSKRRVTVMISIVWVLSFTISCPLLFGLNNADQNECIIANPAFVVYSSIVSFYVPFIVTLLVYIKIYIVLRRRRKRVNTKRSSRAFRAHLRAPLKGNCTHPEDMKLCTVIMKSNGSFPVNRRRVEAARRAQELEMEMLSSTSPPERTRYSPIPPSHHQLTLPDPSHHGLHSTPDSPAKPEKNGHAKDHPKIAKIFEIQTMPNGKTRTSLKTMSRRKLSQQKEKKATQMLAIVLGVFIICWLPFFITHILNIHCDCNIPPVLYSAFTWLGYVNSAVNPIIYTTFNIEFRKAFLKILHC
row,SMILES,inhibition
1,CC(=O)N1CCCC1c1nc2ccccc2n1Cc1ccccc1Cl (configuration not stated),14.7%
2,CCOc1ccc(CCn2c3c(c(=O)[nH]c2=O)C(NC(=O)c2cccc(F)c2)(C(F)(F)F)C(=O)N3)cc1OCC (configuration not stated),-22.9%
3,Cn1ncc2c(N3CCN(c4ccc(F)cc4)CC3)ncnc21,-20.5%
4,O=C(Cc1ccc(-c2ccccc2)cc1)NCCS(=O)(=O)N1CCN(c2ccc(F)cc2)CC1,3.15%
5,COc1cc(-c2nc3sccn3c2Nc2c(C)cccc2C)ccc1O,-9.6%
6,CCOc1ccc(-n2c(=O)c3c4c(sc3n(CC(=O)NC(C)CC)c2=O)CCCCC4)cc1 (configuration not stated),-1.62%
7,O=C(Nc1ccc(F)cc1)Nc1csc2c1CCCC2,4.23%
8,Cc1ccc(CNC(=O)CSc2nc3c(sc4ccccc43)c(=O)n2CCCC(=O)NCCO)cc1,11.4%
9,CCN1C(C(=O)c2ccccc2)=C(OC(=O)COc2ccc(C)cc2)c2ccccc2S1(=O)=O,12.5%
10,COC(=O)c1ccc(N2C(=O)Cc3cc(OC)c(OC)cc3C2c2ccc(F)cc2)cc1 (configuration not stated),-15.2%
11,O=C(c1ccc2c(Cl)c3c(nc2c1)CCCC3)N1CCN(c2ccc(Cl)cc2)CC1,-0.239%
12,COc1ccc(N2CCN(CCCNC(=O)C3COc4ccccc4C3)CC2)cc1 (configuration not stated),-11.9%
13,O=C(Nc1nc2c(F)cc(F)cc2s1)c1ccc(S(=O)(=O)N2CCc3ccccc32)cc1,-20.5%
14,CCOCCc1nnc(NC(=O)C(=O)c2cc(C)n(-c3ccc(C)cc3C)c2C)s1,-0.152%
15,COc1ccc2c(c1)c1c(c(=O)n(Cc3ccccc3)c(=O)n1CC(=O)Nc1ccccc1OC)n2C,-10.7%
16,CCn1c(C)c(C)c2cc(C(=O)NCC(C)c3ccccc3)ccc21 (configuration not stated),-2.12%
17,COc1ccc(N(CC(=O)Nc2cccc(Cl)c2)S(=O)(=O)c2c(C)[nH]c(=O)[nH]c2=O)cc1,16.9%
18,Cc1ccccc1-c1noc(CSc2nc3ccccc3[nH]2)n1,-2.76%
19,COc1ccc(CCCc2nnc(SCC(=O)Nc3cccc(F)c3C)o2)cc1,26%
20,COCCCn1c(SCc2cccc(Cl)c2)nc2c(sc3ccccc32)c1=O,12.3%
21,CCOCCc1nn2c(=O)cc(COC(=O)c3ccccc3OC)nc2s1,-19%
22,CCOC(=O)C1CCCN(C(=O)c2ccc3c(c2)sc2nc(-c4cccc(OC)c4)cn23)C1 (configuration not stated),6.47%
23,CCc1ccccc1NC(=O)NC1CC2CCC(C1)N2Cc1cccs1 (configuration not stated),active: 55%
24,CCCC(=O)Nc1cccc(OCc2cc(=O)n3cccc(C)c3n2)c1,-4.33%
25,Cc1cc(=O)n2nc(N(C)CC(=O)NCc3ccccc3C)sc2n1,-0.198%
26,CCc1ccccc1Nc1nn2c(=O)c3ccc(C(=O)NCCC4=CCCCC4)cc3nc2s1,17.5%
27,O=C(NCCc1ccccc1)c1cc(Nc2ccccc2)nc2ccccc12,-19.3%
